Results published in PubChem BioAssay AID743279 (National Center for Advancing Translational Sciences (NCATS), 2014).
About 17,000 (4.7%) of roughly 360,000 compounds were called active. The shares of active, inactive and inconclusive entries below differ from those in the screen. Cut-off read from the data, not from the text of the source: active = activity change below about -50%; inconclusive = mostly about -30% to -49%; inactive = weaker than that.

Assay: qHTS for Inhibitors of Inflammasome Signaling: IL-1-beta AlphaLISA Primary Screen
Conditions: THP-1 LPS/ATP IL-1B secretion, 16 h; at 57.5 µM, active compounds read low
Procedure, shortened: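 Secreted IL-1B measured by AlphaLISA bead assay after 16 h compound exposure of THP-1 cells; compounds (final up to 57.5 uM) added 1 h before LPS (250 ng/mL) and ATP (1.25 mM) stimulation; lower signal means less secretion.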
% is set by controls: 0 for no effect and ±100 for the full control effect.

Activity change, active:
COc1ccc(C(CCNC(C)c2ccccc2)c2ccc(F)cc2)cc1 (stereo not given) -50.2%, CN(C)S(=O)(=O)c1cccc(-n2sc3ccccc3c2=O)c1 -105%, CC(=O)N1CCc2c(sc(NC(=O)c3ccc([N+](=O)[O-])o3)c2C(N)=O)C1 -80%, O=C(NC1CCN(Cc2ccccc2)CC1)c1cn(-c2ccccc2)nc1-c1cccnc1 -90.6%

Activity change, inactive:
COCCOC1CCN(Cc2cn(Cc3ccccc3)nc2-c2cc3ccccc3o2)CC1 -12.7%, COc1ccc(OC)c(NC(=O)C2(C)CCN2Cc2ccc(SC)cc2)c1 (stereo not given) -5.99%, CCOCCCNC(=O)c1ccc(OC)c(OC2CCN(C(C)C)CC2)c1 0%, O=C(NCCc1ccccc1)c1cccc(Br)c1 -17.9%, CN(C)CC(O)COc1cc2ccccc2cc1C(=O)N1CCCCC1 (stereo not given) -19.8%, COc1cccc(NC(=O)C2(C)CCN2Cc2cccc(OC)c2F)c1 (stereo not given) -17.2%

Activity change, inconclusive:
O=C(CSCc1ccccc1)N1CCN(c2ccc(F)cc2)CC1 -37.8%, OCC1(Cc2ccccc2F)CCCN(Cc2c(F)ccc(F)c2F)C1 (stereo not given) -31.8%, COc1ccc(/C=C/C(=O)Nc2cccnc2)cc1OC -37.6%, Cc1cc(N2CCOCC2)nc(-c2ccccc2O)n1 -45.7%, N#CC1(NC(=O)COC(=O)c2ncc(Cl)c(Cl)c2Cl)CCCCC1 -40.3%, O=C(NCCCN1CCN(c2ccc(F)cc2)CC1)NC12CC3CC(CC(C3)C1)C2 -49.5%, Cc1ccc2c(CN(C)Cc3ccc(Cl)cc3Cl)cc(=O)oc2c1 -43%, Cc1ccc(C(=O)Nc2nc(C(N)C(C)C)cs2)cc1 (stereo not given) -30.5%, O=S(=O)(c1ccc2ccccc2c1)N1CCN(C2CCN(Cc3ccccc3)CC2)CC1 -40%, Cc1cccc(-c2ocnc2C(=O)Nc2ccccc2NC(=O)c2ccccn2)c1 -33%, COc1cc2c(cc1OC)C(c1ccccc1)N(C(=O)c1ccccc1)CC2 (stereo not given) -30.8%, CCOC(=O)C1=C(C)NC(C)=C(C(=O)OCC)C1C(=O)OCC(=O)NCc1ccccc1OC -34.5%, NS(=O)(=O)c1ccc(N2N=C(c3ccccc3)CC2c2cccc(F)c2)cc1 (stereo not given) -32.4%, COc1cccc(N2CCN(c3ccc4nnc(CCC(=O)Nc5ccccc5OC)n4n3)CC2)c1 -39.8%, O=C(/C=C/c1ccco1)Nc1cccc(-c2nc3ccccc3[nH]2)c1 -32.4%
